Data: article PMC5577129
No constants are given. Whether binding was seen depends on the method and setting. For part of these data: Binding seen in cells or lysates may run through a third protein. Some binding calls cover weakened binding; strength is not graded here. For part of these data: Where a sequence is shown, tags or fusion partners need not be part of it.

Key:
[1] = biological target: T1, AtPRD3 (Arabidopsis thaliana) (UniProt Q0WWX5); assay: two-hybrid; Gal4 vector system (Clontech), pGBKT7 and pGADT7, yeast AH109; growth on SD/-Trp-Leu-His-Ade plates, 3 to 7 days, 30 °C; cells serially diluted
T1 sequence: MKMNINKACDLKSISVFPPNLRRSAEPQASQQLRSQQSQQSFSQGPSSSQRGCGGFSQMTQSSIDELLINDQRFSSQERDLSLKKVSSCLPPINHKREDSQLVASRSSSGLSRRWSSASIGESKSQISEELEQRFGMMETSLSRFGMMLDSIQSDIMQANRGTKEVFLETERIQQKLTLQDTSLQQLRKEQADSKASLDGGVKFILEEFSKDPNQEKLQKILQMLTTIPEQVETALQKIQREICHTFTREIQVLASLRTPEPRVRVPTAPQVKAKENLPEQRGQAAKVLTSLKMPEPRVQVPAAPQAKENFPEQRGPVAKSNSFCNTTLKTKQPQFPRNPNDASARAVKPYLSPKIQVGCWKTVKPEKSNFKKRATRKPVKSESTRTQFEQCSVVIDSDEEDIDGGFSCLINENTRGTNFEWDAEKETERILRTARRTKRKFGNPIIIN

[2] = biological target: T2, AtDFO (BiFC fusion) (Arabidopsis thaliana) (UniProt Q8RX33); assay: split reporter; BiFC, pSPYNE-35S and pSPYCE-35S, onion epidermal cells, gene gun; confocal microscopy 16–24 h after transformation
T2 sequence: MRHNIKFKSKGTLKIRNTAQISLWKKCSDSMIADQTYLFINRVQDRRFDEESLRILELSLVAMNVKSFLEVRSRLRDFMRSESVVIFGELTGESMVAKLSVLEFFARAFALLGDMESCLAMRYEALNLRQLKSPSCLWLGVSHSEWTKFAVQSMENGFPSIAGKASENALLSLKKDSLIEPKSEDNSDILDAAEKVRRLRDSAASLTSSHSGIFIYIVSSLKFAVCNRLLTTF

[3] = biological target: T3, AtPRD3 (BiFC fusion) (Arabidopsis thaliana) (UniProt Q0WWX5); assay: as above
T3 sequence: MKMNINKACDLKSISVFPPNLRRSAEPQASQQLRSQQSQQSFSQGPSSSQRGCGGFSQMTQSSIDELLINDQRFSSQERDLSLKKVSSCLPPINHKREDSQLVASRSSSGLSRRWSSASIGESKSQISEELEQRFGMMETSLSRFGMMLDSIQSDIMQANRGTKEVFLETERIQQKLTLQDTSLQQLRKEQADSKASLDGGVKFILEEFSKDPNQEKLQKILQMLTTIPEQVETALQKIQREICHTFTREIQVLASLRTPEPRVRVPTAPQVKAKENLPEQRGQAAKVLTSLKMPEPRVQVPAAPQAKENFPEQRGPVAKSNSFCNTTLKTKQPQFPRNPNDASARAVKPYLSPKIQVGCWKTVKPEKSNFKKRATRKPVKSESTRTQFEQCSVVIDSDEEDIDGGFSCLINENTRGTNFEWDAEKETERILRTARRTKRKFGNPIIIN

[4] = biological target: T4, AtSPO11-1 (BiFC fusion) (Arabidopsis thaliana) (UniProt Q9M4A2); assay: as above
T4 sequence: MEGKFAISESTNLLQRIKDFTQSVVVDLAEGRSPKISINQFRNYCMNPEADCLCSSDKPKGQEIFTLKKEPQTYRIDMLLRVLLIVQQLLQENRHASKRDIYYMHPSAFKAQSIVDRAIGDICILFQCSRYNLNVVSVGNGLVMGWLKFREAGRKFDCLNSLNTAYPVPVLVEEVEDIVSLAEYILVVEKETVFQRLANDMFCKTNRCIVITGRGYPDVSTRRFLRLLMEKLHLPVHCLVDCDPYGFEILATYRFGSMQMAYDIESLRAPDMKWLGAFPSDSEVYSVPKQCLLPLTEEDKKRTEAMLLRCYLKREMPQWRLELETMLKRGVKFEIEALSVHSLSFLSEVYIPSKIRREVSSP

[5] = biological target: T5, AtSPO11-2 (BiFC fusion) (Arabidopsis thaliana) (UniProt Q9M4A1); assay: as above
T5 sequence: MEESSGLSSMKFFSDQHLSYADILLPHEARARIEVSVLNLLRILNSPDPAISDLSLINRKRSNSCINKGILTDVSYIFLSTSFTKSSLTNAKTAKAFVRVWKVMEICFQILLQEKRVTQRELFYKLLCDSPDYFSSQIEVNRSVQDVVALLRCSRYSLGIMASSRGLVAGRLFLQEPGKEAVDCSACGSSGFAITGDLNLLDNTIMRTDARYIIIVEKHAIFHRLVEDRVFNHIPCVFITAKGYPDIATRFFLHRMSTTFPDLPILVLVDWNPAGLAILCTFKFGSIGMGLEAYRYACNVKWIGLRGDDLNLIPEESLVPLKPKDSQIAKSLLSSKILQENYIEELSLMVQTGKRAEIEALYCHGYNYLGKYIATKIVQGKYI

[6] = biological target: T6, AtDFO (Arabidopsis thaliana) (UniProt Q8RX33); assay: two-hybrid; Gal4 vector system (Clontech), pGBKT7 and pGADT7, yeast AH109; growth on SD/-Trp-Leu-His-Ade plates, 3 to 7 days, 30 °C; cells serially diluted
T6 sequence: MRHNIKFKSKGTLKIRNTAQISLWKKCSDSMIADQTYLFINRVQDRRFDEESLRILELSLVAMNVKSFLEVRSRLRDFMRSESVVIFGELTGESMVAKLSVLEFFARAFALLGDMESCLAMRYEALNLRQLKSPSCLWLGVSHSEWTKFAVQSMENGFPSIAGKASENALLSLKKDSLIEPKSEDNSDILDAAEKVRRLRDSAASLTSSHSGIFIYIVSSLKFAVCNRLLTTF

[7] = biological target: T7, AtSPO11-1 (Arabidopsis thaliana) (UniProt Q9M4A2); assay: as above
T7 sequence: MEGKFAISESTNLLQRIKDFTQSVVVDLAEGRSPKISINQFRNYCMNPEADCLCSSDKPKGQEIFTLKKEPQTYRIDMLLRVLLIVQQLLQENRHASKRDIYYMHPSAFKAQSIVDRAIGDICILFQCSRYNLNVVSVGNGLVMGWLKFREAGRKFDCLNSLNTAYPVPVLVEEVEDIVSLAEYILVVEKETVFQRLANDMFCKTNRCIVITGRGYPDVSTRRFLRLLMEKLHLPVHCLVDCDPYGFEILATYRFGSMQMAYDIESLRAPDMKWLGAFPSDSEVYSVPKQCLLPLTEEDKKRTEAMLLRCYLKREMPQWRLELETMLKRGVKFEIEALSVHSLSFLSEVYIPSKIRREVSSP

[8] = biological target: T8, AtSPO11-2 (Arabidopsis thaliana) (UniProt Q9M4A1); assay: as above
T8 sequence: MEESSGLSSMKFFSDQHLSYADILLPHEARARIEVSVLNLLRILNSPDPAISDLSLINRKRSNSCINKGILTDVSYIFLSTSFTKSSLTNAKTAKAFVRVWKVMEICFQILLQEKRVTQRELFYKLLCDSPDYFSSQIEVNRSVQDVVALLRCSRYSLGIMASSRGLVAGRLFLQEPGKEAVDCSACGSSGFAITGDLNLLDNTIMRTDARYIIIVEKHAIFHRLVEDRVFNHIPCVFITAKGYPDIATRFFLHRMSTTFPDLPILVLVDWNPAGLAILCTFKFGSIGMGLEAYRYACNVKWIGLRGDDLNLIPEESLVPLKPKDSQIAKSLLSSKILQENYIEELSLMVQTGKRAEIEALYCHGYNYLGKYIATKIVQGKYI

Measured: binding

B1: AtPRD3 (protein, UniProt Q0WWX5 1-449)
chain: MKMNINKACDLKSISVFPPNLRRSAEPQASQQLRSQQSQQSFSQGPSSSQRGCGGFSQMTQSSIDELLINDQRFSSQERDLSLKKVSSCLPPINHKREDSQLVASRSSSGLSRRWSSASIGESKSQISEELEQRFGMMETSLSRFGMMLDSIQSDIMQANRGTKEVFLETERIQQKLTLQDTSLQQLRKEQADSKASLDGGVKFILEEFSKDPNQEKLQKILQMLTTIPEQVETALQKIQREICHTFTREIQVLASLRTPEPRVRVPTAPQVKAKENLPEQRGQAAKVLTSLKMPEPRVQVPAAPQAKENFPEQRGPVAKSNSFCNTTLKTKQPQFPRNPNDASARAVKPYLSPKIQVGCWKTVKPEKSNFKKRATRKPVKSESTRTQFEQCSVVIDSDEEDIDGGFSCLINENTRGTNFEWDAEKETERILRTARRTKRKFGNPIIIN
binds: [1]

B2: AtPRD1 (BiFC fusion) (protein, UniProt O23277 1-1330)
chain: MFFQHSQLQNSDHLLHESMADSNHQSLSPPCANGHRSTISLRDDQGGTFCLICFSNLVSDPRIPTVHVSYALHQLSIAISEPIFLRTLLSSHIHFLVSPLVHALSSIDDAPIAIQIMDMISLLCSVEESSIGEDFVERISDQLSSGALGWSRRQLHMLHCFGVLMSCENININSHIRDKEALVCQLVEGLQLPSEEIRGEILFALYKFSALQFTEQNVDGIEVLSLLCPKLLCLSLEALAKTQRDDVRLNCVALLTILAQQGLLANSHSNSASSMSLDEVDDDPMQTAENVAARPCLNVLFAEAIKGPLLSTDSEVQIKTLDLIFHYISQESTPSKQIQVMVEENVADYIFEILRLSECKDQVVNSCLRVLDLFSLAEHSFRKRLVIGFPSVIRVLHYVGEVPCHPFQIQTLKLISSCISDFPGIASSSQVQEIALVLKKMLERYYSQEMGLFPDAFAIICSVFVSLMKTPSFGETADVLTSLQESLRHSILASLSLPEKDSTQILHAVYLLNEVYVYCTASTSINKTICIELRHCVIDVCTSHLLPWFLSDVNEVNEEATLGIMETFHSILLQNSDIQAKEFAELLVSADWFSFSFGCLGNFCTDNMKQRIYLMLSSLVDILLEQKTGSHIRDALHCLPSDPQDLLFLLGQASSNNQELASCQSAALLIFHTSSIYNDRLADDKLVLASLEQYIILNKTSLICAISDSPALLNLVNLYGLCRSLQNERYQISYSLEAERIIFHLLNEYEWDLGSINIHLESLKWLFQQESISKSLIYQIQKISRNNLIGNEVHNVYGDGRQRSLTYWFAKLISEGDNYAATLLVNLLTQLAEKEEQENDVISILNLMNTIVSIFPTASNNLSMNGIGSVIHRLVSGFSNSSLGTSFRTLLLLVFNILTSVQPAVLMIDESWYAVSIKLLNFLSLRDTAIKQNHEDMVVIGILSLVLYHSSDGALVEASRNIVSNSYLVSAINTVVDVACSKGPALTQCQDETNIGEALAFTLLLYFFSLRSLQIVLAGAVDWQTFFGTSTSLETLPVVCIHCHNLCRLMHFGAPQIKLIASYCLLELLTGLSEQVDIKKEQLQCSSSYLKSMKAVLGGLVFCDDIRVATNSALCLSMILGWEDMEGRTEMLKTSSWYRFIAEEMSVSLAMPCSASSTYVNHHKPAVYLTVAMLRLKNKPVWLRTVFDESCISSMIQNLNGINISREIVILFRELMQAELLNSQQVTKLDRAFQECRKQMHRNGTRDETVEEQVQRKIPSIHDHSEFCNYLVHLMVSNSFGHPSESETYTQKKKQILDEMEQFSELISTREGRVSPIQEETRQMQTERIV
binds: [2] | [3] | [4] | [5]

B3: AtPRD1-A (1–388 aa) (domain or fragment, UniProt O23277 1-388)
chain: MFFQHSQLQNSDHLLHESMADSNHQSLSPPCANGHRSTISLRDDQGGTFCLICFSNLVSDPRIPTVHVSYALHQLSIAISEPIFLRTLLSSHIHFLVSPLVHALSSIDDAPIAIQIMDMISLLCSVEESSIGEDFVERISDQLSSGALGWSRRQLHMLHCFGVLMSCENININSHIRDKEALVCQLVEGLQLPSEEIRGEILFALYKFSALQFTEQNVDGIEVLSLLCPKLLCLSLEALAKTQRDDVRLNCVALLTILAQQGLLANSHSNSASSMSLDEVDDDPMQTAENVAARPCLNVLFAEAIKGPLLSTDSEVQIKTLDLIFHYISQESTPSKQIQVMVEENVADYIFEILRLSECKDQVVNSCLRVLDLFSLAEHSFRKRLVIG
binds: [6] | [1] | [7] | [8]
